In PMC4336329 (PLoS ONE, 2015):
The campaign covered roughly 310,000 compounds. About 2,200 (0.71%) showed an effect of 50% or more. Effects have a minus sign here. The list shows a part of the results.

These compounds were tested against human ether-à-go-go-related gene (hERG) potassium channel (human, UniProt Q12809) (assay: primary screen, population patch clamp on CHO cells stably expressing hERG).
Chain of human ether-à-go-go-related gene (hERG) potassium channel (Q12809 whole entry, looked up): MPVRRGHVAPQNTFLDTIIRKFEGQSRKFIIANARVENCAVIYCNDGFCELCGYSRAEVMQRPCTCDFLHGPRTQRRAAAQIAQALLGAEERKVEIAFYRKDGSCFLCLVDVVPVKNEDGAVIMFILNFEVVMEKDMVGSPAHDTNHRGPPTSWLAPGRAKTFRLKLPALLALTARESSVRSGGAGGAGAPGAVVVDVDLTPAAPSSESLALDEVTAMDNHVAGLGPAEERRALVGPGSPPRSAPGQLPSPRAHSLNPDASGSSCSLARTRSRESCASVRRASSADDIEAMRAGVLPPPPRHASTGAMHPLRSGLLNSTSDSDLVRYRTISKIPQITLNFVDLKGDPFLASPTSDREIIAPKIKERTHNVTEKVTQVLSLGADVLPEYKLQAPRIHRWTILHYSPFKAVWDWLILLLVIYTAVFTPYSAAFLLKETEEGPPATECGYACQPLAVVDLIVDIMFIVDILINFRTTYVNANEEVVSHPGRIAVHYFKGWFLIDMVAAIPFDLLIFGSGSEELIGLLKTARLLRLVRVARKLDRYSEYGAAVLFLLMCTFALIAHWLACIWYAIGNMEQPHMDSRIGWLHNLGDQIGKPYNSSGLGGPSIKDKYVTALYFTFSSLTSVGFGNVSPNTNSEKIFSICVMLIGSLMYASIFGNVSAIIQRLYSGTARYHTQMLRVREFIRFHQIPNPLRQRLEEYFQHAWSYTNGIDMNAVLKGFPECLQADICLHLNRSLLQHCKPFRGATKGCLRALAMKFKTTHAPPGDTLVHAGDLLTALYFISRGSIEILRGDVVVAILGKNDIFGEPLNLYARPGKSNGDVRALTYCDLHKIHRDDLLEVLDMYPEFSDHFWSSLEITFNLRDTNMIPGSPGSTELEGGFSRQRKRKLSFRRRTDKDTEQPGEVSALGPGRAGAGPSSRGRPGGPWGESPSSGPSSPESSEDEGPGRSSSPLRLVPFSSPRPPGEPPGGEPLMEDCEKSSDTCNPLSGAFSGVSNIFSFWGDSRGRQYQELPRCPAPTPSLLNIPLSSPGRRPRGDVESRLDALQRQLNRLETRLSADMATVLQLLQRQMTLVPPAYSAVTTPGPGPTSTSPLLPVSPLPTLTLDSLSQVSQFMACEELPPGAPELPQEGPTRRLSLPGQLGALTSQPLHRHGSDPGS

SMILES | hERG current change (%, negative = inhibition) at 1uM [%]
Nc1c(-c2cccs2)cnn1-c1nc(-c2ccc(Cl)cc2Cl)cs1 | -10.9
CC(C)(C)NC(=O)C(c1ccc(Cl)cc1)N(CCO)C(=O)c1snc(C(N)=O)c1N (stereo not drawn) | 6.64
O=C1[C@H]2[C@@H](c3ccc(F)cc3)N3C(=O)N(c4ccc(Br)cc4)C(=O)[C@@]3(Cc3ccc(Cl)cc3)[C@H]2C(=O)N1C1CCCCC1 | 15.1
COc1cc(NS(=O)(=O)c2ccc3[nH]c(=O)[nH]c3c2)cc(OC)c1 | 19.7
CCN(C(=O)CSc1cc(C)c2ccccc2n1)c1c(N)n(Cc2ccccc2)c(=O)[nH]c1=O | 12.8
COc1ccc(/C=N/NC(=O)C(N)=O)c(OC)c1OC | 13.2
CCOc1ccc(CCNC(=O)c2nn(C)c3c2CS(=O)(=O)c2ccccc2-3)cc1 | 0.616
Cc1ccc(/C=N\n2c(-c3ccccc3)n[nH]c2=S)s1 | 10.7
CCCOc1ccc(C(=O)NC(=S)N2C[C@H]3C[C@H](C2)c2cccc(=O)n2C3)cc1 | -2.76
O=C(CC1CCCCC1)c1c(O)c2ccccc2oc1=O | -4.69
COc1ccc(C(=O)NC(=S)N2CCC(C)CC2)cc1 | 14.3
CCOc1ccc(NC(=S)N(CCOC)C(C)c2ccco2)cc1 (stereo not drawn) | -2.26
O=C(NCc1cccc(C(F)(F)F)c1)c1ccc(=O)[nH]c1 | 16.7
COc1ccc(N(Cc2ccccc2)S(=O)(=O)c2cccc(C(=O)Nc3ccccn3)c2)cc1 | -16.5
Cc1noc(C(=O)Nc2cccnc2Cl)c1Cl | 12.6
CC1(C)CC=C(NNC(=O)c2cccnc2)C(=O)C1 | 19.6
CCc1ccccc1NC(=S)N1CCN(c2ccccn2)CC1 | 10.6
COc1ccc(Cl)cc1-c1n[nH]c(=S)o1 | 13.8
COc1ccc(CNC(=O)[C@@H](NC(=O)C2CCN(S(=O)(=O)c3ccccc3)CC2)C(C)C)cc1 | 25
COCCCn1nnnc1SCC(=O)N1c2ccccc2CC1C (stereo not drawn) | 22.5
C=CCc1c(C)nc(-c2ccccc2)nc1N/N=C/c1ccncc1 | -10.2
O=C1NCCCC1C(=O)N/N=C/c1ccc([N+](=O)[O-])cc1 (stereo not drawn) | 11.1
O=C(NC1CCCCC1)N1CCCCCCC1 | 12.1
CN(C)C(=O)Oc1cc(=O)n2c3c(cccc13)CCC2 | 12.4
